From PubChem BioAssay AID624296 (National Center for Advancing Translational Sciences (NCATS), 2012)
Hit rate of the full screen: of about 350,000 compounds, about 9,900 (2.8%) were called active. Inconclusive results, whose numbers are uncertain, are shown with a selection of clear calls. The call rests on the fitted dose curve; in most records, active means well fitted activation curve with a large enough effect; inconclusive means small, poorly fitted or top-dose-only effect; inactive means no such curve, though single readings can be large or run the other way. Potencies of inconclusive entries are left out as doubtful fits.

assay: A quantitative high throughput screen for small molecules that induce DNA re-replication in MCF 10a normal breast cells.; further: nearly all actives have a fitted effect of over 50% in size; on activity, positive = re-replication: % of control where 0% means no effect; settings: MCF 10A DNA re-replication, Hoechst nuclear intensity, 48 h; activity, positive = re-replication: at 46.1 µM (top of the series)
Potency means the concentration at half of the fitted maximal effect; tags describe the fitted curve by direction and shape.

Q: For `O=c1cc(O)c2c(=O)n(-c3ccccc3)c3c(c2o1)CCCCC3`, which Potency is on record?
A: inconclusive [activator, single point]

Q: Which “activity, positive = re-replication” value does the source give for `Cc1ccc(C(c2cc(Cl)c3cccnc3c2O)N2CCN(C)CC2)cc1` (stereo not drawn) here?
A: inactive: 10.9%

Q: Which Potency does the source give for `O=C(Nc1ccc(Br)cc1)c1ccc(Br)c(S(=O)(=O)Nc2cccnc2)c1` here?
A: inconclusive [activator, partial curve, poor fit]

Q: With `COC(=O)c1cn(-c2ccccc2)nc1C(=O)OC` as the molecule, how does the Potency read?
A: inconclusive [activator, partial curve, poor fit]

Q: With `Cc1ccc(C(C)C)c(OCc2ccc(-c3nnco3)cc2)c1` as the molecule, how does the Potency read?
A: active: 23.1 µM

Q: Which Potency does the source give for `O=C(NCCSCc1c(F)cccc1Cl)Nc1ccccc1` here?
A: inconclusive [activator, partial curve, poor fit]

Q: With `Cc1cccc(Oc2nc(-c3ccncc3)nc3ccccc23)c1` as the molecule, how does the Potency read?
A: inconclusive [activator, single point]

Q: With `COC(=O)c1sc(NC(=O)c2cc3c(s2)CCCC3)nc1C` as the molecule, how does the Potency read?
A: inconclusive [activator, full curve, poor fit]

Q: For `Cc1ccccc1OCC(=O)N/N=C/c1ccncc1`, which “activity, positive = re-replication” value is on record?
A: inactive: 2.12%

Q: For `Cn1c(=O)c(Nc2ccc(Cl)cc2)c2c3c(cccc31)C(=O)c1ccccc1-2`, which Potency is on record?
A: inconclusive [activator, full curve, poor fit]

Q: Which “activity, positive = re-replication” value does the source give for `CC(C)CN1C(=O)C(=O)N(CC(=O)Nc2cccc(Cl)c2Cl)C1=O` here?
A: inactive: -12.4%

Q: Which Potency does the source give for `Cc1ccc(O)c(NC(=O)c2cc([N+](=O)[O-])ccc2Cl)c1` here?
A: inconclusive [activator, partial curve, poor fit]

Q: Which Potency does the source give for `O=c1sc2ccccc2n1CCCOc1ccccc1` here?
A: inconclusive [activator, single point]

Q: Which “activity, positive = re-replication” value does the source give for `COc1cccc(NC(=O)CNC(=O)c2ccc(C)o2)c1` here?
A: inactive: -3.05%

Q: Which Potency does the source give for `CN(Cc1ccccc1)C(=O)CSc1nc2ccccc2c(=O)n1Cc1ccco1` here?
A: inconclusive [activator, partial curve, poor fit]

Q: With `CC(=O)NN1C(=O)/C(=C/c2ccc(Br)o2)SC1=S` as the molecule, how does the Potency read?
A: inconclusive [activator, single point]

Q: With `CCN(CC(=O)Nc1ccccc1C(F)(F)F)C(=O)c1cc(-c2ccccc2)nn1-c1ccccc1` as the molecule, how does the Potency read?
A: active: 10.3 µM

Q: Which Potency does the source give for `Cn1c(CCCOc2ccc(Cl)cc2Cl)nnc1SCC(=O)Nc1cccc(F)c1` here?
A: inconclusive [activator, single point]

Q: With `O=C(Nc1ccccc1C(F)(F)F)c1ncn[nH]1` as the molecule, how does the “activity, positive = re-replication” value read?
A: inactive: 0.304%

Q: With `O=C(Nc1nc(-c2cc(F)ccc2F)cs1)C1=NN(c2ccccc2)C(=O)CC1` as the molecule, how does the Potency read?
A: inconclusive [activator, single point]

Q: With `CCOC(=O)Cc1csc(NC(=O)/C=C/c2ccc(Br)o2)n1` as the molecule, how does the Potency read?
A: inconclusive [activator, single point]

Q: With `Cc1ccc(NC(=S)N/N=C/c2ccc(OCCC(C)C)cc2)c(C)c1` as the molecule, how does the Potency read?
A: inconclusive [activator, partial curve]

Q: For `CC1=Nn2c(nc3sc4c(c3c2=O)CCCC4)SC1`, which “activity, positive = re-replication” value is on record?
A: inactive: 1.59%

Q: For `COc1cc(NC(=O)c2cccc([N+](=O)[O-])c2)ccc1NC(=O)c1ccco1`, which “activity, positive = re-replication” value is on record?
A: inactive: 0.996%

Q: For `O=C(N/N=C/c1ccco1)c1cc(-c2cccc(Br)c2)nc2ccccc12`, which Potency is on record?
A: inconclusive [activator, partial curve]

Q: With `CCOC(=O)CC(NC(=O)c1cc2cc(Cl)cc(Cl)c2oc1=O)c1cccc([N+](=O)[O-])c1` (stereo not drawn) as the molecule, how does the Potency read?
A: inconclusive [activator, single point]

Q: For `O=C(/C=C/c1ccccc1O)c1ccc(Cl)cc1`, which Potency is on record?
A: inconclusive [activator, single point]

Q: With `COc1ccc(NC(=O)CSc2nc3sc(C)cc3c(=O)n2C)cc1` as the molecule, how does the “activity, positive = re-replication” value read?
A: inactive: -13%

Q: Which Potency does the source give for `O=C1c2ccccc2C(=O)N1CCn1c(=O)oc2ccccc21` here?
A: inconclusive [activator, full curve, poor fit]

Q: For `CN1CCN(C(=S)SCc2nc(N)nc(Nc3ccc(F)cc3)n2)CC1`, which “activity, positive = re-replication” value is on record?
A: inactive: -0.712%

Q: With `CCc1ccc(CNC(=O)c2cc3c(C)nc4ccccc4c3o2)cc1` as the molecule, how does the Potency read?
A: inconclusive [activator, single point]

Q: Which Potency does the source give for `CCn1c(SCc2ccc(OC)cc2)nnc1-c1ccncc1` here?
A: active: 20.6 µM

Q: Which Potency does the source give for `O=C1NCN(c2ccccc2)C12CCN(c1nnnn1-c1ccccc1)CC2` here?
A: inconclusive [activator, single point]

Q: Which Potency does the source give for `CCN(CC)c1nc(-c2ccc(Cl)cc2)cc(C(F)(F)F)c1C#N` here?
A: active: 1.16 µM

Q: For `Cc1cccc(N=C2NN=C(c3c(C)[nH]c4ccccc34)CS2)c1`, which Potency is on record?
A: active: 14.6 µM

Q: Which Potency does the source give for `CCC(CC)NC(=O)Nc1ccc(F)cc1F` here?
A: inconclusive [activator, partial curve]

Q: Which Potency does the source give for `CCOC(=O)c1ccc(NS(=O)(=O)c2cc(-c3nnnn3CC)ccc2OC)cc1` here?
A: inconclusive [activator, single point]

Q: Which Potency does the source give for `CCOc1ccc(CO/N=C/c2c(C)[nH]c(=O)[nH]c2=O)cc1` here?
A: inconclusive [activator, single point]

Q: For `O=C(NCCOc1ccccc1F)C1CCC(=O)N(CCc2cccc(F)c2)C1` (stereo not drawn), which “activity, positive = re-replication” value is on record?
A: inactive: -1.17%

Q: For `CCc1cc(=O)oc2c(C)c(OS(C)(=O)=O)ccc12`, which “activity, positive = re-replication” value is on record?
A: inactive: -5.25%

Q: Which “activity, positive = re-replication” value does the source give for `Cc1ccc(S(=O)(=O)N2CCN(c3cccc(C)c3)CC2)cc1` here?
A: inactive: 11.6%

Q: Which Potency does the source give for `COCc1c(C#N)c(NCCc2ccc(F)cc2)nc(C)c1[N+](=O)[O-]` here?
A: inconclusive [activator, full curve]

Q: With `C=CCOCCN(C)C1=NS(=O)(=O)c2cc([N+](=O)[O-])ccc21` as the molecule, how does the Potency read?
A: inconclusive [activator, single point]

Q: For `Cc1nc2c3cc(Cl)ccc3n(CCN3CCCCC3)c2s1`, which Potency is on record?
A: active: 18.4 µM

Q: Which “activity, positive = re-replication” value does the source give for `Cc1cc(NC(=O)NC(=O)c2ccccc2F)no1` here?
A: inactive: 0.0333%

Q: For `CN1CCN(C(=O)/C=C/c2ccc([N+](=O)[O-])o2)CC1`, which Potency is on record?
A: active: 20.6 µM

Q: Which Potency does the source give for `COc1ccc(Nc2oc(COc3cccc(C)c3)nc2C#N)cc1` here?
A: inconclusive [activator, single point]

Q: For `COc1ccccc1C(=O)COC(=O)Cn1[nH]c(=O)c2ccccc2c1=O`, which “activity, positive = re-replication” value is on record?
A: inactive: -0.0357%

Q: With `Cc1ccc2sc(N(CCCN(C)C)C(=O)c3ccc(S(=O)(=O)N4CCc5ccccc5C4)cc3)nc2c1C` as the molecule, how does the Potency read?
A: inconclusive [activator, partial curve]

Q: Which Potency does the source give for `O=C(Nc1cccc(NC(=O)c2ccccc2Cl)c1)c1ccc([N+](=O)[O-])o1` here?
A: active: 3.66 µM

Q: With `CCNC(=O)CC1C(=O)N(c2cccc(OC)c2)C(=O)N1CCOC` (stereo not drawn) as the molecule, how does the Potency read?
A: inconclusive [activator, partial curve, poor fit]

Q: For `S=c1nc2ccccc2c2nc(-c3ccccc3Cl)[nH]n12`, which “activity, positive = re-replication” value is on record?
A: inactive: 0.52%

Q: Which “activity, positive = re-replication” value does the source give for `CC(OC(=O)c1cccc(-n2cnnn2)c1)C(=O)N(C)c1ccccc1` (stereo not drawn) here?
A: inactive: 21.8%

Q: For `Cc1ccc(N/N=C/c2cccnc2)cc1`, which Potency is on record?
A: inconclusive [activator, single point]

Q: Which Potency does the source give for `COc1ccc(N(CC(=O)N2CCC(Cc3ccccc3)CC2)S(C)(=O)=O)cc1` here?
A: inconclusive [activator, full curve, poor fit]

Q: With `CC1(N2CCCCC2)C(=O)c2ccccc2C1=O` as the molecule, how does the Potency read?
A: inconclusive [activator, partial curve, poor fit]

Q: Which Potency does the source give for `CC(=O)NCc1ccc(S(=O)(=O)N2CCN(S(=O)(=O)c3ccc4ccccc4c3)CC2)cc1` here?
A: inconclusive [activator, single point]

Q: With `CCCCCCCCCCCCCCCC(=O)OC(C)C` as the molecule, how does the “activity, positive = re-replication” value read?
A: inactive: -2.27%

Q: Which “activity, positive = re-replication” value does the source give for `CC(C)CC(NC(=O)C(CC(C)C)NC(=O)C(Cc1ccc(OCc2ccccc2)cc1)NC(=O)OC(C)(C)C)C(N)=O` (stereo not drawn) here?
A: inactive: 0.564%

Q: With `CC(Nc1nc(-c2ccccc2)nc2ccccc12)c1ccccc1` (stereo not drawn) as the molecule, how does the Potency read?
A: inconclusive [activator, partial curve, poor fit]

Q: With `O=S(=O)(N/N=C/c1ccc(N2CCOCC2)cc1)c1ccccc1` as the molecule, how does the Potency read?
A: inconclusive [activator, single point]

Q: With `CCOC(=O)c1ccc(COC(=O)CNS(=O)(=O)c2ccccc2)cc1` as the molecule, how does the “activity, positive = re-replication” value read?
A: inactive: -6.57%

Q: Which “activity, positive = re-replication” value does the source give for `CC(C)n1c(NCc2ccc(N(C)C)cc2)nc2ccccc21` here?
A: inactive: -16.6%

Q: For `CC1Cc2ccccc2N1c1ncnc(N)c1[N+](=O)[O-]` (stereo not drawn), which Potency is on record?
A: inconclusive [activator, partial curve]

Q: For `CCOc1ccc(NC(=O)c2cccc(OC(=S)N3CCOCC3)c2)cc1`, which “activity, positive = re-replication” value is on record?
A: inactive: 10.6%

Q: Which Potency does the source give for `CC(=O)Nc1cccc(C(=O)/C=C/c2ccc(Br)cc2)c1` here?
A: active: 5.8 µM

Q: For `O=c1[nH]c(/C(Cl)=C/c2cccc(F)c2)nc2cc(C(F)(F)F)ccc12`, which Potency is on record?
A: inconclusive [activator, single point]

Q: With `O=[N+]([O-])c1ccc(Cl)c(/C=N/NC(=S)Nc2ccccc2)c1` as the molecule, how does the Potency read?
A: inconclusive [activator, partial curve, poor fit]

Q: For `NNCCc1ccccc1`, which Potency is on record?
A: inconclusive [activator, single point]

Q: For `CCc1ccccc1NC(=O)CN(c1ccc(OC)cc1OC)S(=O)(=O)c1ccccc1`, which Potency is on record?
A: inconclusive [activator, partial curve, poor fit]

Q: With `COc1ccc2nc(C(F)(F)Cl)c(C#N)c(N)c2c1` as the molecule, how does the Potency read?
A: inconclusive [activator, single point]

Q: With `COc1ccc(-n2nc(C(=O)NCC(=O)Nc3cc(OC)c(OC)c(OC)c3)c3ccccc3c2=O)cc1Cl` as the molecule, how does the Potency read?
A: active: 23.1 µM

Q: Which Potency does the source give for `O=C(CSc1nc2c(c(C(F)(F)F)n1)CCc1ccccc1-2)NCc1ccco1` here?
A: inconclusive [activator, single point]
